From patent US10571469B2, “Kit for labelling bacteria” (Centre National de la Recherche Scientifique (CNRS), priority 2012, dated 2020)

Key:
[1] = tested on: E. coli K12 wild type strain; test: KDO-N3 assimilation in various culture media (M9, LB); type: cell-based, Escherichia coli; conditions: KDO-N3 1 mM, 12 hours
[2] = tested on: E. coli K12 wild type strain; conditions: KDO-N3 1 mM, 12 hours; click with biotin-alkyn; anti-biotin antibody coupled to Alexa Fluor
Procedure: E. coli K12 wild type strain is grown in Luria-Bertani (LB) medium in a rotary shaker (200 rpm) at 37° C.
Overnight cultures were diluted 100 times in fresh medium (final volume 200 μl) containing KDO-N3 (1 mM). Bacteria were incubated at 37° C. for 12 hours, washed 3 times with phosphate buffer (0.05 M, pH 7.5) by centrifugation at 14000×g for 2 min at room temperature. A click pre-mix composed of CuSO4 and TGTA, at a final concentration of 2 mM and 4 mM respectively, was incubated overnight in phosphate buffer at 37° C. under vigorous shaking. Next, aminoguanidine, sodium ascorbate at final concentrations of 4 mM and 5 mM respectively were added to the overnight pre-mix click. […]
An anti-biotin antibody coupled to Alexa Fluor A594 (Jackson Immuno Research) was used diluted 10 to 1000 times to label bacteria. Colony forming units (CFU) were also monitored by plating dilutions before Copper click chemistry.
Microscopic analyses were performed after Copper click chemistry on bacterial inoculum placed onto glass cover slips and covered with a thin (1 mm thick) semisolid 1% agar pad made with dilute LB (1/10 in phosphate buffer). Images were recorded with an epifluorescence automated microscope (Nikon TE2000-E-PFS, Nikon, France) equipped with a CooISNAP HQ 2 camera (Roper Scientific, Roper Scientific SARL, France) and a 100×/1.4 DLL objective. […]

[3] = tested on: mixture of Gram+ bacteria (B. subtilis) and Gram− bacteria (E Coli)
Procedure: (§1) Overnight cultures were diluted 100 times in fresh medium (final volume 200 μl) containing KDO-N3 (1 mM). Bacteria were incubated at 37° C. for 12 hours and then washed 3 times with phosphate buffer (0.05 M, pH 7.5) by centrifugation at 14000×g for 2 min at room temperature.
(§2) A click pre-mix composed of CuSO4 and TGTA, at a final concentration of 2 mM and 4 mM respectively, is incubated overnight in a phosphate buffer (0.05 M, pH 7.5) at 37° C. under vigorous shaking. Next, amino guanidine, sodium ascorbate and A488-yne at final concentrations of 4 mM, 5 mM and 0.13 mM respectively were added to the overnight click pre-mix. Bacteria were then re-suspended in this solution and incubated 30 minutes at 37° C. under shaking. Finally, cells were washed 3 times with phosphate buffer by centrifugation at 14000×g for 2 min at room temperature.
(§3) 1.3.3) Microscopic analyses were performed after Copper click chemistry on bacterial inoculum placed onto glass cover slips and covered with a thin (1 mm thick) semisolid 1% agar pad made with dilute LB (1/10 in phosphate buffer). Images were recorded with an epifluorescence automated microscope (Nikon TE2000-E-PFS, Nikon, France) equipped with a Cool SNAP HQ 2 camera (Roper Scientific, Roper Scientific SARL, France) and a 100×/1.4 DLL objective. Excitation light was emitted by a 120 W metal halide light and signal was monitored using appropriate filters. Digital analysis and image processing were conducted by a custom automation script (Visual Basic) under Metamorph 7.5 (Molecular Devices, Molecular Devices France, France).
E. coli K12 wild type strain rendered fluorescent via m-cherry, E. coli K12 sodA-mCherry and B. subtilis were grown in Luria-Bertani (LB) medium in a rotary shaker (200 rpm) at 37° C.
1.2) Copper catalysed click chemistry (as disclosed in example 6)
1.3) Bacterial counting and fluorescence microscopy (as disclosed in example 5)

[4] = tested on: E. coli K12 (living and heat-killed)
Procedure: as §1, §2
E. coli K12 was grown in Luria-Bertani (LB) medium in a rotary shaker (200 rpm) at 37° C. Dead E. coli K12 were obtained after heating at 120° C. for 15 minutes.
1.2) Copper catalysed click chemistry (as disclosed in example 5).
1.3.1) For total bacterial scoring, cells were fixed and stained in a solution of paraformaldehyde 3%—DAPI 2 μg/ml and filtered on an isopore polycarbonate membrane (Milipore).
1.3.2) Colony forming units (CFU) were also monitored by plating dilutions before Copper click chemistry.
as §3

[5] = E. coli plus B. subtilis, 696 analyzed cells
[6] = KDO-N3 1 mM, click with A488-yne, threshold 30 arbitrary fluorescence unit

For `[N-]=[N+]=NC[C@@H](O)[C@@H](O)[C@H](O)[C@H](O)CC(=O)C(=O)O` [KDO-N3, 8-azido-3,8-dideoxy-D-manno-octulosonic acid], the “KDO assimilation in LB medium compared to M9 medium” value ([1]; 616 cells LB, 598 cells M9) was “higher”, the KDO assimilation ([1]; M9 or LB medium) was “occurs whatever the culture medium used” and the “detection of viable E. coli, Kdo positive cell counting versus cultivable counting” value [2] was “all viable E. coli bacteria were detected”. The “KDO-N3+ cells, Total” value [3, 5] was 521, the “KDO-N3− cells, Total” value [3, 5] was 175 and the “labeling and detection in Gram+/Gram− mixture” value ([3]; mixture contacted with KDO-N3) was “Only cultivable Gram− bacteria was labeled”. The “cultivable cell share by KDO-N3 fluorescence counting” value [4] was 47.7%, the “cultivable cells (KDO-N3+), fluorescence above threshold 30” value [4, 6] was 1452 cells and the “dead cells (KDO-N3−), fluorescence below threshold 30” value [4, 6] was 1587 cells. The “incorporation in living versus dead E. coli” value ([4]; known numbers of cultivable and dead (120° C., 15 minutes) E. coli) was “incorporated only in living E coli” and the “incorporation, share of the living E. coli” value ([4]; known numbers of cultivable and dead E. coli) was “incorporated in all of the living E. coli”.
